About 300 (9.4%) of roughly 3,200 compounds showed activity. The list shows a part of the results, in another mix than the full data.
Test system: A673/TR/shEF
Assay: cell viability (LOESS-normalised, relative to median of negative controls) (log2 ratio); higher = more viable cells (less compound effect), active = hit call of the paper (over 3 MAD below the median)
Settings: treatment time: 72 h
How it was run: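 A673/TR/shEF Ewing sarcoma cells were plated at 1,500 per well in 384-well plates and cultured with or without doxycycline, added 24 h before compounds, to induce EWS-FLI1 shRNA knockdown. Library compounds at two or more concentrations, alongside DMSO controls, were applied for three days. Cell viability was measured by CellTiter-Glo luminescence on an Envision reader. Readings were LOESS-corrected per plate, divided by the median of negative controls and log2-transformed, and hits were wells lying at least three median absolute deviations from the median of all screened wells.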

[1] = 0.103 µM, library screen: screen3, EWS-FLI1 expression: high (no doxycycline)
[2] = 0.103 µM, library screen: screen3, EWS-FLI1 expression: low (doxycycline-induced shRNA knockdown)
[3] = 0.308 µM, library screen: screen3, EWS-FLI1 expression: high (no doxycycline)
[4] = 0.308 µM, library screen: screen3, EWS-FLI1 expression: low (doxycycline-induced shRNA knockdown)
[5] = 0.926 µM, library screen: screen3, EWS-FLI1 expression: high (no doxycycline)
[6] = 0.926 µM, library screen: screen3, EWS-FLI1 expression: low (doxycycline-induced shRNA knockdown)
[7] = 2.8 µM, library screen: screen3, EWS-FLI1 expression: high (no doxycycline)
[8] = 2.8 µM, library screen: screen3, EWS-FLI1 expression: low (doxycycline-induced shRNA knockdown)
[9] = 8.3 µM, library screen: screen3, EWS-FLI1 expression: high (no doxycycline)
[10] = 8.3 µM, library screen: screen3, EWS-FLI1 expression: low (doxycycline-induced shRNA knockdown)
[11] = 25 µM, library screen: screen3, EWS-FLI1 expression: high (no doxycycline)
[12] = 25 µM, library screen: screen3, EWS-FLI1 expression: low (doxycycline-induced shRNA knockdown)
[13] = 0.25 µM, library screen: screen2, EWS-FLI1 expression: high (no doxycycline)
[14] = 0.25 µM, library screen: screen2, EWS-FLI1 expression: low (doxycycline-induced shRNA knockdown)
[15] = 2.5 µM, library screen: screen2, EWS-FLI1 expression: high (no doxycycline)
[16] = 2.5 µM, library screen: screen2, EWS-FLI1 expression: low (doxycycline-induced shRNA knockdown)
[17] = 0.25 µM, library screen: screen1, EWS-FLI1 expression: high (no doxycycline)
[18] = 0.25 µM, library screen: screen1, EWS-FLI1 expression: low (doxycycline-induced shRNA knockdown)
[19] = 2.5 µM, library screen: screen1, EWS-FLI1 expression: high (no doxycycline)
[20] = 2.5 µM, library screen: screen1, EWS-FLI1 expression: low (doxycycline-induced shRNA knockdown)

Measured: cell viability (log2)

C[C@]12CC[C@H]3[C@@H](CCC4=CC(=O)CC[C@@]43C)[C@@H]1CC[C@@H]2OC(=O)CCC1CCCC1
inactive: [1] -0.000785 | [2] 0.011 | [3] 0.0351 | [4] 0.0268 | [5] 0.0442 | [6] 0.0219 | [7] 0.0558 | [8] 0.00975 | [9] 0.0577 | [10] 0.0516 | [11] 0.0518 | [12] 0.0747

C/C=C(/C)C(=O)O[C@H]1C(C)=C2[C@H]([C@@H]1OC(=O)CCCCCCC)[C@@](C)(OC(C)=O)C[C@H](OC(=O)CCC)[C@@]1(O)[C@H]2OC(=O)[C@@]1(C)O
active: [13] -3.16 | [14] -2.76 | [15] -3.49 | [16] -2.81

CC[N+]1(C)CCCC(OC(=O)C(O)(c2ccccc2)c2ccccc2)C1 (configuration not stated)
inactive: [17] 0.12 | [18] 0.0657 | [19] 0.139 | [20] 0.0957

CCCCCC[C@H]1C(=O)O[C@H](C)[C@H](NC(=O)c2cccc(NC=O)c2O)C(=O)O[C@@H](C)[C@@H]1OC(=O)CC(C)C
active: [17] -0.888 | [18] -0.636 | [19] -1.71 | [20] -0.774

CCCN(CCC)[C@H]1CCc2c(F)ccc(O)c2C1
inactive: [13] 0.127 | [14] 0.127 | [15] 0.109 | [16] 0.143

CCCCSP(=O)(SCCCC)SCCCC
active: [17] -0.12

N#Cc1c(Cl)c(Cl)c(Cl)c(C#N)c1Cl
inactive: [17] -0.0732 | [18] 0.00425 | [20] 0.063
active: [19] -0.219

CC(C)Nc1nc(Cl)nc(NC(C)C)n1
inactive: [17] 0.16 | [18] 0.0964 | [19] 0.156 | [20] 0.183

c1ccc2c(c1)OCC(C1=NCCN1)O2 (configuration not stated)
inactive: [13] 0.2 | [14] 0.0971 | [15] 0.109 | [16] 0.0701

CN1C(=O)CN=C(c2ccccc2)c2cc(Cl)ccc21
inactive: [17] 0.0871 | [18] 0.0866 | [19] 0.123 | [20] 0.0545

Cc1cc([C@@H]2CCCN2C)on1
inactive: [13] 0.0967 | [14] 0.135 | [15] 0.0205 | [16] 0.0708

CC(C)[C@@]1(NC(=O)[C@@H]2C=C3c4cccc5[nH]cc(c45)C[C@H]3N(C)C2)O[C@@]2(O)[C@@H]3CCCN3C(=O)[C@H](Cc3ccccc3)N2C1=O
inactive: [13] 0.129 | [14] 0.0491 | [15] 0.0947 | [16] 0.0782

CC[C@@]1([C@H]2O[C@H]([C@H]3O[C@@](O)(CO)[C@H](C)C[C@@H]3C)C[C@H]2C)CC[C@H]([C@@]2(C)CC[C@]3(C[C@H](O)[C@@H](C)[C@@H]([C@H](C)[C@H](OC)[C@@H](C)C(=O)O)O3)O2)O1
active: [19] -0.325

COc1ccc2c(c1)[C@@]13CCCC[C@H]1[C@@H](C2)NCC3
inactive: [13] 0.141 | [14] 0.0967 | [15] 0.0149 | [16] 0.093

COc1cc2c(c(OC)c1OC)-c1ccc(OC)c(=O)cc1[C@@H](NC(C)=O)CC2
active: [17] -4.23 | [18] -0.935 | [13] -3.33 | [14] -0.503 | [19] -4.18 | [20] -0.869 | [15] -3.21 | [16] -0.472 | 25 µM, library screen: screen2, EWS-FLI1 expression: high (no doxycycline) -3.45 | 25 µM, library screen: screen2, EWS-FLI1 expression: low (doxycycline-induced shRNA knockdown) -0.515

CC[C@@H](CO)NC(=O)[C@@H]1C=C2c3cccc4c3c(cn4C)C[C@H]2N(C)C1
inactive: [13] 0.124 | [14] 0.0568 | [15] 0.0862 | [16] 0.0917

C[CH2][Hg][S]c1ccccc1C(=O)O
active: [17] -0.15 | [19] -3.6 | [20] -2.98

CN1CCc2cc3c(cc2[C@H]1[C@@H]1OC(=O)c2c1ccc1c2OCO1)OCO3
inactive: [17] 0.0332 | [18] 0.0151 | [13] 0.182 | [14] 0.058 | [19] 0.0536 | [20] -0.00339 | [15] 0.066 | [16] 0.0943

OCc1cnc[nH]1
inactive: [13] 0.156 | [14] 0.0587 | [15] 0.0715 | [16] 0.0882

O=C(O)CC[N+](=O)[O-]
inactive: [17] 0.0358 | [18] -0.0127 | [13] 0.071 | [14] 0.135 | [19] 0.00748 | [20] 0.113 | [15] 0.153 | [16] 0.0852

CC(=O)O[C@@H]1CC2C(C)(C)[C@H](O)C=C[C@]2(C)C2CC[C@]3(C)C(=CC(=O)O[C@H]3c3ccoc3)[C@@]21C (some centres not stated)
inactive: [17] 0.113 | [18] 0.0781 | [19] 0.222 | [20] 0.195

Oc1ccc2c3c1O[C@H]1[C@@H](O)CC[C@@]4(O)[C@@H](C2)N(CC2CCC2)CC[C@]314
inactive: [17] 0.179 | [18] 0.0385 | [13] 0.193 | [14] 0.0903 | [19] 0.196 | [20] 0.1 | [15] 0.143 | [16] 0.153

CCC(=O)C(CC(C)N1CCOCC1)(c1ccccc1)c1ccccc1 (configuration not stated)
inactive: [17] 0.0298 | [18] 0.011 | [19] 0.0537 | [20] -0.074

CN1C[C@H](CNC(=O)OCc2ccccc2)C[C@@H]2c3cccc4c3c(cn4C)C[C@H]21
inactive: [17] 0.0915 | [18] 0.0924 | [13] 0.162 | [14] 0.0868 | [19] 0.139 | [20] 0.265 | [15] 0.088 | [16] 0.156

Cc1[nH]c2ccccc2c1CN(C)C
inactive: [17] 0.0738 | [18] 0.0842 | [19] 0.116 | [20] 0.138

CC(C)c1cccc(C(C)C)c1O
inactive: [13] 0.212 | [14] 0.0586 | [15] 0.0835 | [16] 0.0729

O=C(OC1CC2CCC(C1)[N+]21CCCC1)C(O)(c1ccccc1)c1ccccc1 (configuration not stated)
inactive: [1] 0.0271 | [2] 0.0529 | [3] 0.0379 | [4] 0.0384 | [5] -0.0177 | [6] 0.0427 | [7] 0.0921 | [8] 0.0957 | [9] 0.022 | [10] 0.0679 | [11] 0.0665 | [12] 0.0295

CC(C)c1cc2c(c(O)c1O)[C@@]1(C(=O)O)CCCC(C)(C)[C@@H]1CC2
inactive: [17] 0.0242 | [18] 0.0347 | [19] 0.115 | [20] 0.191

CC(=O)O[C@H]1C[C@@H](OC(C)=O)C(C)(C)C2C[C@@H](OC(C)=O)[C@]3(C)C(CC[C@@]4(C)[C@H](c5ccoc5)C[C@H]5O[C@]543)[C@]21C (some centres not stated)
inactive: [17] 0.134 | [18] 0.0408 | [19] 0.129 | [20] 0.147

Cc1nc(-c2ccc(-c3ccc(C(=O)N4CCc5cc6c(cc54)C4(CCN(C)CC4)CO6)cc3)c(C)c2)no1
inactive: [13] 0.157 | [14] 0.0314 | [15] 0.127 | [16] 0.0502

S=C=NCc1ccccc1
inactive: [17] 0.0421 | [18] 0.0817 | [19] 0.0546 | [20] 0.123

C[C@H]1CC[C@]2(NC1)O[C@H]1C[C@H]3[C@@H]4CC[C@H]5C[C@@H](O)CC[C@]5(C)[C@H]4CC[C@]3(C)[C@H]1[C@@H]2C
inactive: [17] 0.0391 | [18] 1.7e-05 | [19] 0.161 | [20] 0.0669

COP(=O)(OC)OC=C(Cl)Cl
inactive: [17] 0.059 | [18] 0.0393 | [19] 0.104 | [20] 0.00932

CN1CC[C@]2(CCN3CCc4c(oc5ccccc45)[C@@H]3C2)N(C)C1=O
inactive: [13] 0.195 | [14] 0.0926 | [15] 0.114 | [16] 0.114

N#CC(C#N)=Cc1ccc(O)c(O)c1
inactive: 0.025 µM, library screen: screen1, EWS-FLI1 expression: high (no doxycycline) 0.0488 | 0.025 µM, library screen: screen1, EWS-FLI1 expression: low (doxycycline-induced shRNA knockdown) -0.0484 | [17] 0.042 | [18] -0.0954 | [13] 0.172 | [14] 0.124 | [19] 0.0531 | [20] -0.000697 | [15] 0.143 | [16] 0.061 | 25 µM, library screen: screen1, EWS-FLI1 expression: high (no doxycycline) -0.0656 | 25 µM, library screen: screen1, EWS-FLI1 expression: low (doxycycline-induced shRNA knockdown) 0.016

Nc1ncnc2c1ncn2[C@@H]1O[C@H](COP(=O)(O)CP(=O)(O)OP(=O)([O-])[O-])[C@H](O)C1O.[Li+].[Li+] (some centres not stated)
inactive: [13] 0.132 | [14] 0.0925 | [15] 0.106 | [16] 0.143

CO[C@H]1C[C@H](O[C@H]2CC[C@@]3(C)[C@H](CC[C@@H]4[C@@H]3CC[C@]3(C)[C@@H](C5=CC(=O)OC5)[C@@H](OC(C)=O)C[C@]43O)C2)O[C@@H](C)[C@@H]1O
active: [17] -0.578 | [18] -1.73 | [19] -3.54 | [20] -4.25

COc1ccc2[nH]c3c(c2c1)CCNC3
inactive: [13] 0.0618 | [14] 0.101 | [15] 0.067 | [16] 0.0895

CO[C@H]1[C@H](O)[C@H](O[C@H]2CC[C@@]3(C=O)[C@H](CC[C@@H]4[C@@H]3CC[C@]3(C)[C@@H](C5=CC(=O)OC5)CC[C@]43O)C2)O[C@@H](C)[C@@H]1O
active: [17] -3.17 | [18] -3.22 | [19] -3.52 | [20] -4.22

Cc1cccc(C)c1NC(=O)CN1CCCC1=O
inactive: [1] 0.119 | [2] -0.000586 | [3] 0.107 | [4] 0.118 | [5] 0.135 | [6] 0.0891 | [7] 0.156 | [8] 0.0751 | [9] 0.15 | [10] 0.0489 | [11] 0.154 | [12] 0.0876

Source: the supplement of paper PMC6089552
